Sequences with one replicate were seen in a single cluster, so their values are uncertain.
These sequences were tested on ATP (assay: switch fluorescence ratio, 500 uM ATP over buffer (Cy3 cluster intensity, sum of 5 cycles each) (fold (ratio)); higher = stronger signal-on switching upon ATP binding; sequences stand for … in TCGTCGGCAGCGTCAGATGTGTATAAGAGACAGTTTTTTTTTTTTTTTTTTTTTTTTT…TC). Conditions: aptamer strand: ATP DNA aptamer (quencher-CACCTGGGGGAGTATTGCGGAGGAAGG + anchor), 100 nM annealed; ATP concentration: 500 uM; one replicate.
How it was run: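 The quencher-labelled ATP aptamer, at 100 nM, was annealed to Cy3-labelled switching-strand clusters on a modified Illumina MiSeq flow-cell. The clusters were imaged in selection buffer, then after 15 min with 500 uM ATP at 22 °C, and this buffer/ATP cycle ran five times with NaOH stripping and re-annealing between runs. Per-cluster fluorescence ratios, summed target-cycle over summed buffer-cycle Cy3 intensity, were averaged per switch-domain sequence. Clusters outside 100-1000 RFU were excluded.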
In the case of AGAAGAATGT, the switch fluorescence ratio is reported as 0.955. Sequence CTGGCTAGGA has a switch fluorescence ratio of 0.967. TTCACAGAC showed a switch fluorescence ratio of 1.53. In the case of AGCGGGCCAC, the switch fluorescence ratio is reported as 0.992. For GCAATGAACG, the switch fluorescence ratio was 1.18. With CAAAAACGGG the switch fluorescence ratio was 1.03. ACAGCCTGTT showed a switch fluorescence ratio of 1.02. TCACATTAGG showed a switch fluorescence ratio of 1.05. For TATTGTCACG, the switch fluorescence ratio was 1.08. For GGGAGAAGCT, the switch fluorescence ratio was 1.06. AAATGTTAGA gave a switch fluorescence ratio of 0.997. ACGAAGGTGT gave a switch fluorescence ratio of 1.14. In the case of ATCATGATT, the switch fluorescence ratio is reported as 0.984. TTCCTTGGGG showed a switch fluorescence ratio of 0.976. CACGTTCCTA gave a switch fluorescence ratio of 1.05. AGTTGTATTG was tested, and the switch fluorescence ratio was 0.995. With ATGCCCCTTG the switch fluorescence ratio was 0.978. TTCGATAAAG was tested, and the switch fluorescence ratio was 1. Work on CAGGAGGTTG yielded a switch fluorescence ratio of 1. TCTTGGGTCG was tested, and the switch fluorescence ratio was 0.984. For CCGTGTGTAT, the switch fluorescence ratio was 1.03. For AAGGTATATG, the switch fluorescence ratio was 1.01. AAGCCGACTT gave a switch fluorescence ratio of 0.975. GTTTTTATAC gave a switch fluorescence ratio of 1.03. GGCAGACAAA was tested, and the switch fluorescence ratio was 0.973. In the case of ATTAAAGCGC, the switch fluorescence ratio is reported as 0.977. Sequence AGGCCGAGCC has a switch fluorescence ratio of 1.02. In the case of CACATGTTTG, the switch fluorescence ratio is reported as 0.979. Work on GTGAGAATAG yielded a switch fluorescence ratio of 0.963. With GAGGTAATAT the switch fluorescence ratio was 1.52. GAACCCCACT was tested, and the switch fluorescence ratio was 1.24. Work on TCTCAGATTA yielded a switch fluorescence ratio of 1. GCTGGTCGGC was tested, and the switch fluorescence ratio was 1.03. For GAATCCCTGG, the switch fluorescence ratio was 1.08. Work on CGGTCTCCAA yielded a switch fluorescence ratio of 0.985. ATGGTGCCAA gave a switch fluorescence ratio of 1.04. Sequence TGGAATAGTC has a switch fluorescence ratio of 1.05. TGTGTATAAT was tested, and the switch fluorescence ratio was 0.98. CCGGGGTGCG gave a switch fluorescence ratio of 1.08. Sequence CCCTTGGGAG has a switch fluorescence ratio of 0.995. For GGTCGACCAA, the switch fluorescence ratio was 0.991. In the case of ATCCCGAGGC, the switch fluorescence ratio is reported as 1.28. In the case of TGGGCGTGTA, the switch fluorescence ratio is reported as 1.01. With TGCGCCGATT the switch fluorescence ratio was 1.04. TATGCCAGAT showed a switch fluorescence ratio of 0.987. GGGCTGTGCG gave a switch fluorescence ratio of 1.03. GACCAGCTTG showed a switch fluorescence ratio of 0.98. TCGGGACTAG gave a switch fluorescence ratio of 1.15. TGGGTTGACT showed a switch fluorescence ratio of 0.936. Work on CAAGCGAATG yielded a switch fluorescence ratio of 1.02. GAACTGCCGT gave a switch fluorescence ratio of 0.993. GGGATGCAAG showed a switch fluorescence ratio of 1.04. In the case of CTATCAGCG, the switch fluorescence ratio is reported as 1.03. AGCTTCTCTG was tested, and the switch fluorescence ratio was 1.09. Sequence TATGTCTTGA has a switch fluorescence ratio of 1.03. TCATTTAA was tested, and the switch fluorescence ratio was 0.954. Work on CGCTTTGCTT yielded a switch fluorescence ratio of 0.988. With ATTGAGTTCG the switch fluorescence ratio was 0.969. With AAGTGGAATA the switch fluorescence ratio was 1. Work on ATCCCTGACC yielded a switch fluorescence ratio of 1.11. With TAGTACCACC the switch fluorescence ratio was 1.05. Work on CCACGGGGAT yielded a switch fluorescence ratio of 0.989. With ATAAACTAAT the switch fluorescence ratio was 0.974. GAATCAGTGC showed a switch fluorescence ratio of 1.07. With AACGGTTTCG the switch fluorescence ratio was 1.49. TTCGCCTCGA was tested, and the switch fluorescence ratio was 1.02. Work on CGGACGTTCT yielded a switch fluorescence ratio of 0.893. TGGCAGCGCT gave a switch fluorescence ratio of 0.99. TGCTCTGAAG showed a switch fluorescence ratio of 1.01. TAAGAGCTTA showed a switch fluorescence ratio of 0.999. With TGCACTTCCC the switch fluorescence ratio was 1.33. With GGGGAGACAA the switch fluorescence ratio was 1.12. Sequence AATTATTTAA has a switch fluorescence ratio of 1.03. For AGCTTAGCGG, the switch fluorescence ratio was 0.966. Sequence CCCGTTAGCA has a switch fluorescence ratio of 1.13. Work on ATGGGATAGG yielded a switch fluorescence ratio of 0.944. Work on CTGCAAGTAG yielded a switch fluorescence ratio of 2.25. ATTGAAAACT gave a switch fluorescence ratio of 1.04. With GGTCACTGGG the switch fluorescence ratio was 0.98. With CAAGATCCTC the switch fluorescence ratio was 1.03. For TAGCCAGCCA, the switch fluorescence ratio was 0.981. For GGTTAGGGCT, the switch fluorescence ratio was 0.948. For ATCTCCTGGT, the switch fluorescence ratio was 1.02. Sequence GGCCCCCCCC has a switch fluorescence ratio of 1.05. In the case of GGCGCCGAGT, the switch fluorescence ratio is reported as 0.972. With AATCGTTTTA the switch fluorescence ratio was 0.998. With ACACGGGCT the switch fluorescence ratio was 0.987. Sequence TATTTGCGTT has a switch fluorescence ratio of 0.972. Work on CCGTAGGTC yielded a switch fluorescence ratio of 1.12. GAATCTAGCC showed a switch fluorescence ratio of 0.961. Sequence AGCATTCGGA has a switch fluorescence ratio of 1.05. GCCGATTGAT showed a switch fluorescence ratio of 0.996. Work on TAGATACTGT yielded a switch fluorescence ratio of 1.01. For GTCGCTGAGG, the switch fluorescence ratio was 0.971. AGGACCTGAC was tested, and the switch fluorescence ratio was 2.52. TAGTACAATG showed a switch fluorescence ratio of 1.01. CTTATTGTGG gave a switch fluorescence ratio of 0.995. Work on CGTCAGTACT yielded a switch fluorescence ratio of 1.55. In the case of TATACTTATG, the switch fluorescence ratio is reported as 1.04. TACTAGCCCG showed a switch fluorescence ratio of 1.02. GCCTGTTTCA gave a switch fluorescence ratio of 1.02. For TACAACTTTT, the switch fluorescence ratio was 1.02. In the case of TCGGACTTTG, the switch fluorescence ratio is reported as 0.919. AAGACACATT gave a switch fluorescence ratio of 0.99. Work on GAAGCTCAAC yielded a switch fluorescence ratio of 1.57. For TGGTAAAGA, the switch fluorescence ratio was 1.01. With CTTACAT the switch fluorescence ratio was 0.971. TTGCCTCGGA gave a switch fluorescence ratio of 1.02. TCTTCCCAAG gave a switch fluorescence ratio of 1.07. GCGTTAATGA showed a switch fluorescence ratio of 0.961. In the case of CTGATCTGAA, the switch fluorescence ratio is reported as 0.976. ATAGCCTGGA gave a switch fluorescence ratio of 0.997. AGGCGCGGAG was tested, and the switch fluorescence ratio was 1.06. Sequence GCTTCTCGA has a switch fluorescence ratio of 0.975. GAGGCACGTA gave a switch fluorescence ratio of 1.03. Work on AAGAAGAATG yielded a switch fluorescence ratio of 0.984. ATGTTTAATT was tested, and the switch fluorescence ratio was 0.971. Work on GCCTACTTCT yielded a switch fluorescence ratio of 1.02. With CTAGTTCTGA the switch fluorescence ratio was 0.976. With AGCACAAAGA the switch fluorescence ratio was 1.03. In the case of GAGCGTATAG, the switch fluorescence ratio is reported as 1.05. AGACCCTAGA was tested, and the switch fluorescence ratio was 0.989. Sequence CATCTCGCTC has a switch fluorescence ratio of 2.24. For TTCACCAAGT, the switch fluorescence ratio was 1.05. Sequence CTGTTTGGTG has a switch fluorescence ratio of 0.95. TTTTGTCCGT showed a switch fluorescence ratio of 0.99. Sequence TTCAAGCAGG has a switch fluorescence ratio of 1.03. AGGAGTCCGG showed a switch fluorescence ratio of 1.02. In the case of AATAGACTAG, the switch fluorescence ratio is reported as 0.992. With CGGCTGCGGT the switch fluorescence ratio was 1.07. GGGTAAAGGT gave a switch fluorescence ratio of 0.984. Work on AATCACGACC yielded a switch fluorescence ratio of 1.23. Sequence TTCTGCTGGG has a switch fluorescence ratio of 1.61. TTGGATAAGT showed a switch fluorescence ratio of 1. TCCGGGACCC showed a switch fluorescence ratio of 1.25. TTATGCGG gave a switch fluorescence ratio of 1.02. With CATATGTTAC the switch fluorescence ratio was 1.09. AGGTTTAACG was tested, and the switch fluorescence ratio was 0.966. With TGGATCCGTT the switch fluorescence ratio was 0.974. CCCGGGGCGT showed a switch fluorescence ratio of 1.06. In the case of ATTTCAGAG, the switch fluorescence ratio is reported as 1. Sequence TTTAGTCCAT has a switch fluorescence ratio of 0.984. GGCAGCGATG showed a switch fluorescence ratio of 0.971. With TCCTGTTGTT the switch fluorescence ratio was 1.15. In the case of TACGACCTC, the switch fluorescence ratio is reported as 1.21. ATGGCGGGGG gave a switch fluorescence ratio of 0.989. GTCGTCTACC was tested, and the switch fluorescence ratio was 1.02. For AAAAGGCAAC, the switch fluorescence ratio was 1.01. Work on GGTGGTCCCG yielded a switch fluorescence ratio of 0.965. For TGTGCATTTT, the switch fluorescence ratio was 1.03. Work on ATTCTATAAG yielded a switch fluorescence ratio of 0.958. GATCTAGATG was tested, and the switch fluorescence ratio was 0.995. Work on ATGTTGTACA yielded a switch fluorescence ratio of 1.02. With AGGTTGAACT the switch fluorescence ratio was 1. Work on ACGCCATTCC yielded a switch fluorescence ratio of 1.5. TCATTGGGCC was tested, and the switch fluorescence ratio was 0.978. ATCGCTGAGG showed a switch fluorescence ratio of 1.01.
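Note: ATP exposure 15 min at 22 °C before imaging.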
